Among the data in patent US12043670B2, “Anti-BCMA antibody-drug conjugates and methods of use” (Eisai R&D Management Co., Ltd., priority 2020, dated 2024) are Tm values, retold here.

B1: AB200-R1a-Fab_VH49 (antibody)
heavy: QVQLVQSGAEVKKPGSSVKVSCKASGGTFSNYWIHWVRQAPGQGLEWMGASYRGHSDTYYNQKFKGRVTITADKSTSTAYMELSSLRSEDTAVYYCARGAIYHGYDVIDNWGQGTLVTVSSASTKGPSVFPLAPSSKSTSGGTAALGCLVKDYFPEPVTVSWNSGALTSGVHTFPAVLQSSGLYSLSSVVTVPSSSLGTQTYICNVNHKPSNTKVDKKVEPKSC
light: DIQMTQSPSSLSASVGDRVTITCSATQDISNYLNWYQQKPGKAPKLLIYFTSNLQSGVPSRFSGSGSGTDFTLTISSLQPEDFATYYCQQYRKLPWTFGQGTKLEIKRTVAAPSVFIFPPSDEQLKSGTASVVCLLNNFYPREAKVQWKVDNALQSGNSQESVTEQDSKDSTYSLSSTLTLSKADYEKHKVYACEVTHQGLSSPVTKSFNRGEC
B2: AB200-R1a-Fab_VH56 (antibody)
heavy: B1 heavy with S51T, K65R, A100T, I108L
light: B1 light
B3: AB200-R1a-Fab_VH4 (antibody)
heavy: B1 heavy with S25T, I34M, S51T, D57N, N61D, I108L
light: B1 light
B4: AB200-R1a-Fab_VH17 (antibody)
heavy: B1 heavy with N31S, I34M, S51T, N61A, D106E, I108L
light: B1 light
B5: AB200-R1a-Fab_VH54 (antibody)
heavy: B1 heavy with I34M, S51T, S56G, Y59F, I108L, D109N
light: B1 light
B6: AB200-R1a-Fab_VH8 (antibody)
heavy: B1 heavy with I34M, S51T, G54S, K74E, Y102F, I108L
light: B1 light
B7: AB200-R1a-Fab_VH59 (antibody)
heavy: B1 heavy with S25T, W33A, I34M, I108L
light: B1 light
B8: AB200-R1a-Fab_VH16 (antibody)
heavy: B1 heavy with N31T, I34M, S51T, G54I, K74E, I108L
light: B1 light
B9: AB200-R1a-Fab_VH13 (antibody)
heavy: B1 heavy with I34M, S51T, D57T, N61A, F64Y, I108L
light: B1 light
B10: AB200-R1a-Fab_VH60 (antibody)
heavy: B1 heavy with N31S, I34M, S51T, G54I, T58S, I108L
light: B1 light
B11: AB200-R1a-Fab_VH51 (antibody)
heavy: B1 heavy with I34M, S51T, Y59N, A100T, Y105F, I108L
light: B1 light
B12: AB200-R1a-Fab_VH52 (antibody)
heavy: B1 heavy with T28S, N31D, I34M, S51T, D57T, I108L
light: B1 light
B13: AB200-R1a-Fab_VH5 (antibody)
heavy: B1 heavy with I34M, S51T, T58S, Y59N, Q62N, I108L
light: B1 light
B14: AB200-R1a-Fab_VH3 (antibody)
heavy: B1 heavy with I34M, H35S, S51T, D57Q, I101V, I108L
light: B1 light
B15: AB200-R1a-Fab_VH15 (antibody)
heavy: B1 heavy with F29Y, I34M, S51T, T58A, K63R, I108L
light: B1 light
B16: AB200-R1a-Fab_VH57 (antibody)
heavy: B1 heavy with F29Y, W33Y, I34M, S51T, D57E, I108L
light: B1 light
B17: AB200-R1a-Fab_VH50 (antibody)
heavy: B1 heavy with I34M, S51T, Y52F, G66S, I101V, I108L
light: B1 light
B18: AB200-R1H26-R2Vk1 (antibody)
heavy: B1 heavy with T28S, I34M, S51T, G54I, Y59F, I108L
light: B1 light with S24R, T26S, D28S, N31S, F50A, T51A, N53S, Y91F, T97S
B19: AB200-R1H26-R2Vk44 (antibody)
heavy: B1 heavy with T28S, I34M, S51T, G54I, Y59F, I108L
light: B1 light with S24R, T26S, D28S, N31S, L33I, F50A, S56I, K93R, T97S
B20: AB200-R1H26-R2Vk21 (antibody)
heavy: B1 heavy with T28S, I34M, S51T, G54I, Y59F, I108L
light: B1 light with S24R, T26S, D28S, N31S, F50A, Y91F, K93R
B21: AB200-R1H26-R2Vk3 (antibody)
heavy: B1 heavy with T28S, I34M, S51T, G54I, Y59F, I108L
light: B1 light with S24R, T26S, D28S, N31S, F50A, Y91F, T97S
B22: AB200-R1H26-R2Vk23 (antibody)
heavy: B1 heavy with T28S, I34M, S51T, G54I, Y59F, I108L
light: B1 light with S24R, T26S, D28S, N31S, F50A, Y91F, L94I
B23: AB200-R1H26-R2Vk24 (antibody)
heavy: B1 heavy with T28S, I34M, S51T, G54I, Y59F, I108L
light: B1 light with S24R, T26S, D28S, N31S, F50A, L54I, K93R, T97S
B24: AB200-R1H26-R2Vk22 (antibody)
heavy: B1 heavy with T28S, I34M, S51T, G54I, Y59F, I108L
light: B1 light with S24R, T26S, D28S, N31S, F50A, L94I, T97S
B25: AB200-R1H26-R2Vk36 (antibody)
heavy: B1 heavy with T28S, I34M, S51T, G54I, Y59F, I108L
light: B1 light with S24R, T26S, D28S, N31S, L33I, F50A, Y91F, K93R
B26: AB200-R1H26-R2Vk46 (antibody)
heavy: B1 heavy with T28S, I34M, S51T, G54I, Y59F, I108L
light: B1 light with S24R, T26S, D28S, N31S, L33I, F50A, S56I, Y91F, K93R
B27: AB200-R1H26-R2Vk25 (antibody)
heavy: B1 heavy with T28S, I34M, S51T, G54I, Y59F, I108L
light: B1 light with S24R, T26S, D28S, N31S, F50A, L54I, K93R, L94I
B28: AB200-R1H26-R2Vk19 (antibody)
heavy: B1 heavy with T28S, I34M, S51T, G54I, Y59F, I108L
light: B1 light with S24R, T26S, D28S, N31S, F50A, K93R, T97S
B29: AB200-R1H26-R2Vk34 (antibody)
heavy: B1 heavy with T28S, I34M, S51T, G54I, Y59F, I108L
light: B1 light with S24R, T26S, D28S, N31S, L33I, F50A, K93R, T97S
B30: AB200-R1H26-R2Vk31 (antibody)
heavy: B1 heavy with T28S, I34M, S51T, G54I, Y59F, I108L
light: B1 light with S24R, T26S, D28S, N31S, F50A, S56I, Y91F, K93R
B31: AB200-R1H26-R2Vk35 (antibody)
heavy: B1 heavy with T28S, I34M, S51T, G54I, Y59F, I108L
light: B1 light with S24R, T26S, D28S, N31S, L33I, F50A, K93R, L94I
B32: AB200-R1H26-R2Vk32 (antibody)
heavy: B1 heavy with T28S, I34M, S51T, G54I, Y59F, I108L
light: B1 light with S24R, T26S, D28S, N31S, F50A, S56I, L94I, T97S
B33: AB200-R1H26-R2Vk26 (antibody)
heavy: B1 heavy with T28S, I34M, S51T, G54I, Y59F, I108L
light: B1 light with S24R, T26S, D28S, N31S, F50A, L54I, Y91F, K93R
B34: AB200-R1H26-R2Vk20 (antibody)
heavy: B1 heavy with T28S, I34M, S51T, G54I, Y59F, I108L
light: B1 light with S24R, T26S, D28S, N31S, F50A, K93R, L94I
B35: AB200-R1H26-R2Vk33 (antibody)
heavy: B1 heavy with T28S, I34M, S51T, G54I, Y59F, I108L
light: B1 light with S24R, T26S, D28S, N31S, F50A, S56I, Y91F, L94I
B36: AB200-R1H26-R2Vk30 (antibody)
heavy: B1 heavy with T28S, I34M, S51T, G54I, Y59F, I108L
light: B1 light with S24R, T26S, D28S, N31S, F50A, S56I, K93R, L94I
B37: AB200-R1H26-R2Vk29 (antibody)
heavy: B1 heavy with T28S, I34M, S51T, G54I, Y59F, I108L
light: B1 light with S24R, T26S, D28S, N31S, F50A, S56I, K93R, T97S
B38: AB200-R1H26-R2Vk45 (antibody)
heavy: B1 heavy with T28S, I34M, S51T, G54I, Y59F, I108L
light: B1 light with S24R, T26S, D28S, N31S, L33I, F50A, S56I, K93R, L94I

Positions count from the first letter of the chain named.

A short description of one series: ThermoFluor thermostability (Tm). The series is classed as physicochemical. As to conditions: Heavy chain screening Round 1; Fab, paired with light chain AB200_VK6. In general terms: In DSF a fluorescence change marks the thermal transition of the protein.
As for B1, the Tm turned out to be 83.392 °C.

Consider B2, for which the Tm was found to be 84.368 °C.

Consider B3, for which the Tm is 78.011 °C.

In the case of B4, the Tm is 80.449 °C.

For the molecule B5, the Tm turned out to be 79.432 °C.

As to B6, the Tm turned out to be 81.348 °C.

Consider B7, for which the Tm amounted to 84.514 °C.

Take B8: the Tm was found to be 80.661 °C.

Regarding B9, the Tm was 79.465 °C.

Take B10: the Tm turned out to be 79.241 °C.

For B11, the Tm was 79.502 °C.

Consider B12, for which the Tm turned out to be 82.845 °C.

Consider B13, for which the Tm stood at 78.702 °C.

Consider B14, for which the Tm worked out at 78.657 °C.

B15: the Tm amounted to 79.976 °C.

On to B16, for which the Tm is 80.273 °C.

For the molecule B17, the Tm turned out to be 80.428 °C.

Still in this series, the particulars now being: Light chain screening Round 2; Fab, paired with heavy chain AB200_R1_VH26.
As to B18, the Tm was 82.409 °C.

B19: the Tm was found to be 79.402 °C.

B20: the Tm came out at 84.095 °C.

Turning to B21, the Tm was found to be 82.928 °C.

On to B22, for which the Tm turned out to be 83.321 °C.

On to B23, for which the Tm turned out to be 79.357 °C.

Regarding B24, the Tm is 79.661 °C.

On to B25, for which the Tm came out at 84.360 °C.

Turning to B26, the Tm worked out at 83.993 °C.

B27: the Tm turned out to be 80.300 °C.

Consider B28, for which the Tm came to 79.896 °C.

As for B29, the Tm was 79.150 °C.

Take B30: the Tm was determined as 83.337 °C.

On to B31, for which the Tm was 79.657 °C.

Turning to B32, the Tm came out at 80.094 °C.

As for B33, the Tm was 83.451 °C.

With B34, the Tm stood at 81.004 °C.

In the case of B35, the Tm amounted to 83.936 °C.

For B36, the Tm was 81.085 °C.

For the molecule B37, the Tm stood at 80.138 °C.

As for B38, the Tm amounted to 80.255 °C.
